T1: human CLL1 (C-type lectin-like receptor, CLEC12A, MICL) (human, UniProt Q5QGZ9 1-265)
T1 sequence (looked up): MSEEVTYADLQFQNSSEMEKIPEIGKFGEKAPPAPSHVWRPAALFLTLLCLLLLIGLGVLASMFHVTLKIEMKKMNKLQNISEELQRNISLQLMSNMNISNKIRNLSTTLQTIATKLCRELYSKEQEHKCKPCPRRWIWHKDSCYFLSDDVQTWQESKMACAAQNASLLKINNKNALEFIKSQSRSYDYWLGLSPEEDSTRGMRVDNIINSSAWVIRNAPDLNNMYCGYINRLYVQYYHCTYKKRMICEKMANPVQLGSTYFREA


Legend:
Assay in all cases: cell-based or functional assay
[1] = biological target: CD3ε chain (human, UniProt P07766 23-126, limits assumed)
[2] = biological target: T1, human CLL1 (C-type lectin-like …)
[3] = biological target: human FLT3 (Fms like tyrosine kinase 3, CD135) (human, UniProt P36888 27-993)
[4] = biological target: T2, human CDH3 (Cadherin-3, P-Cadherin) (human, UniProt P22223 108-829)
[5] = biological target: T3, human MSLN (mesothelin) (human, UniProt Q13421 37-598)
[6] = biological target: T2, human CDH3 (Cadherin-3, P-Cadherin); remark: listed apart in the source
[7] = biological target: T3, human MSLN (mesothelin); remark: listed apart in the source

Sequence of UniProt P07766 (P07766 23-126 limits assumed): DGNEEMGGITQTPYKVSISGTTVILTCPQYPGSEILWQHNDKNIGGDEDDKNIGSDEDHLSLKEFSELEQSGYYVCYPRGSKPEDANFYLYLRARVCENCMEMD

| Activity reduction of single CD3 binding domain in molecule compared to high affinity binding domain I2C with KD 1.2E-08M [1] | Binder | cytotoxicity EC50, CHO huCLL1 cells [2] | cytotoxicity EC50, CHO huFLT3 cells [3] | cytotoxicity EC50, GSU KO MSLN cells [4] | cytotoxicity EC50, GSU KO CDH3 cells [5] | cytotoxicity EC50, HCT 116 KO MSLN cells [6] | cytotoxicity EC50, HCT 116 KO CDH3 cells [7] |
| --- | --- | --- | --- | --- | --- | --- | --- |
| ~9 fold | CL1 9-G4 CC × 6H10.03 × scFc × FL 4-E9 CC × 6H10.03 (bispecific antibody) QVQLVQSGAEVKKPGASVKVSCKASGYTFTDYYMHWVRQAPGQCLEWMGWINPNSGGPNYAQKFQGRVTMTRDTSISTAHMELSRLRSDDTAVYYCAREKHAVAGIGFDYWGQGTLVTVSSGGGGSGGGGSGGGGSDIQMTQSPSSVSASVGDRVTITCQASQDISNYLNWYQQKPGKAPKLLIYAASSLESGVPSRFSGSGSGTDFTLTISSLQPEDFATYYCQQANSFPLTFGCGTKVDIKSGGGGSEVQLVESGGGLVQPGGSLKLSCAASGFTFNKYAMNWVRQAPGKGMEWVARIRSKYNNYATYYAEAVKDRFTISRDDSKNTLYLQMNNLKTEDTAVYYCVRAGNFGKSYISYWAYWGQGTLVTVSSGGGGSGGGGSGGGGSQTVVTQEPSLTVSPGGTVTITCGSSTGAVTSGNYPNWIQKKPGQAPRGLIGGTKFLAPGTPARFSGSLEGGKAALTLSGVQPEDEAEYYCVLWYSNRWVFGSGTKLTVLGGGGSGGGGSGGGGS[sequence of human IgG1 Fc with R292C N297G V302C (EU numbers) omitted]GGGGSGGGGSGGGGSGGGGSGGGGSGGGGS[sequence of human IgG1 Fc with R292C N297G V302C (EU numbers) omitted]GGGGSGGGGSGGGGSQVTLKESGPTLVKPTETLTLTCTVSGFSFRNARMGVSWIRQPPGKCLEWLAHIFSNDEKSYSTSLKSRLTISKDTSKSQVVLTMTNMDPVDTATYFCARVPEYSSGWYRFDYWGQGTLVTVSSGGGGSGGGGSGGGGSDIQMTQSPSSLSASVGDRVTISCRASQSIRSYLNWYQQKPGKAPKLLIYATSSLQGGVPSRFSGSGSGTDFTLTISSLQPEDFATYYCQQSYSTPFTFGCGTKVEIKSGGGGSEVQLVESGGGLVQPGGSLKLSCAASGFTFNKYAMNWVRQAPGKGMEWVARIRSKYNNYATYYAEAVKDRFTISRDDSKNTLYLQMNNLKTEDTAVYYCVRAGNFGKSYISYWAYWGQGTLVTVSSGGGGSGGGGSGGGGSQTVVTQEPSLTVSPGGTVTITCGSSTGAVTSGNYPNWIQKKPGQAPRGLIGGTKFLAPGTPARFSGSLEGGKAALTLSGVQPEDEAEYYCVLWYSNRWVFGSGTKLTVL | 0.675 nM | 0.785 nM |  |  |  |  |
| ~6 fold | CL1 9-G4 CC × 4G10.04 × scFc × FL 4-E9 CC × 4G10.04 (bispecific antibody) QVQLVQSGAEVKKPGASVKVSCKASGYTFTDYYMHWVRQAPGQCLEWMGWINPNSGGPNYAQKFQGRVTMTRDTSISTAHMELSRLRSDDTAVYYCAREKHAVAGIGFDYWGQGTLVTVSSGGGGSGGGGSGGGGSDIQMTQSPSSVSASVGDRVTITCQASQDISNYLNWYQQKPGKAPKLLIYAASSLESGVPSRFSGSGSGTDFTLTISSLQPEDFATYYCQQANSFPLTFGCGTKVDIKSGGGGSEVQLVESGGGLVQPGGSLKLSCAASGFTFSKYAMNWVREAPGKGLEWVARIRSKYNNYATYYAEAVKDRFTISRDDSKNTVYLQMNNLKTEDTAVYYCVRAENIGKSYISYWAYWGQGTLVTVSSGGGGSGGGGSGGGGSQTVVTQEPSLTVSPGGTVTMT[sequence of about 80 residues omitted]FGGGTKLTVLGGGGSGGGGSGGGGS[sequence of human IgG1 Fc with R292C N297G V302C (EU numbers) omitted]GGGGSGGGGSGGGGSGGGGSGGGGSGGGGS[sequence of human IgG1 Fc with R292C N297G V302C (EU numbers) omitted]GGGGSGGGGSGGGGSQVTLKESGPTLVKPTETLTLTCTVSGFSFRNARMGVSWIRQPPGKCLEWLAHIFSNDEKSYSTSLKSRLTISKDTSKSQVVLTMTNMDPVDTATYFCARVPEYSSGWYRFDYWGQGTLVTVSSGGGGSGGGGSGGGGSDIQMTQSPSSLSASVGDRVTISCRASQSIRSYLNWYQQKPGKAPKLLIYATSSLQGGVPSRFSGSGSGTDFTLTISSLQPEDFATYYCQQSYSTPFTFGCGTKVEIKSGGGGSEVQLVESGGGLVQPGGSLKLSCAASGFTFSKYAMNWVREAPGKGLEWVARIRSKYNNYATYYAEAVKDRFTISRDDSKNTVYLQMNNLKTEDTAVYYCVRAENIGKSYISYWAYWGQGTLVTVSSGGGGSGGGGSGGGGSQTVVTQEPSLTVSPGGTVTMT[sequence of about 80 residues omitted]FGGGTKLTVL | 0.089 nM | 0.17 nM |  |  |  |  |

More lines, now with the values behind:

| Binder | Activity reduction of single CD3 binding domain in molecule compared to high affinity binding domain I2C with KD 1.2E-08M [1] | cytotoxicity EC50, CHO huCLL1 cells [2] | cytotoxicity EC50, CHO huFLT3 cells [3] | cytotoxicity EC50, GSU KO MSLN cells [4] | cytotoxicity EC50, GSU KO CDH3 cells [5] | cytotoxicity EC50, HCT 116 KO MSLN cells [6] | cytotoxicity EC50, HCT 116 KO CDH3 cells [7] |
| --- | --- | --- | --- | --- | --- | --- | --- |
| MS 15-B12 CC × I2M2 × G4 × scFc × G4 × CH3 005-D5 CC × I2M2 (bispecific antibody) QVQLQESGPGLVKPSETLSLTCTVSGGSISSSSYFWGWIRQPPGKCLEWIGNIYYSGSSNYNPSLKSRVTISVDTSKNQFSLKLSSVTAADTAVYYCARLPRGDRDAFDIWGQGTMVTVSSGGGGSGGGGSGGGGSDIVMTQSPSSLSASVGDRVTITCRASQGISNYLAWYQQKPGKVPKLLIYAASTLQSGVPSRFSGSGSGTDFTLTISSLQPEDFATYYCQQSYSTPFTFGCGTKVEIKSGGGGSEVQLVESGGGLVQPGGSLKLSCAASGFTFNKYAINWVREAPGKGLEWVARIRSKYNNYATYYADAVKDRFTISRDDSKNTAYLQMNNLKTEDTAVYYCVRNANFGTSYISYFAYWGQGTLVTVSSGGGGSGGGGSGGGG[sequence of about 350 residues with a human IgG1 Fc omitted]GGGGSGGGGSGGGGSGGGGSGGGGSGGGGS[sequence of human IgG1 Fc with R292C N297G V302C (EU numbers) omitted]GGGGEVQLLESGGGLVQPGGSLRLSCAASGFSFSSYPINWVRQAPGKCLEWVGVIWTGGGTNYASSVKGRFTISRDNSKNTVYLQMNSLRAEDTAVYYCAKSRGVYDFKGRGAMDYWGQGTLVTVSSGGGGSGGGGSGGGGSDIVMTQSPDSLAVSLGERATINCKSSQSLLYSSNQKNYFAWYQQKPGQPPKLLIYWASTRESGVPDRFSGSGSGTDFTLTISSLQAEDVAVYYCQQYYSYPYTFGCGTKLEIKSGGGGSEVQLVESGGGLVQPGGSLKLSCAASGFTFNKYAINWVREAPGKGLEWVARIRSKYNNYATYYADAVKDRFTISRDDSKNTAYLQMNNLKTEDTAVYYCVRNANFGTSYISYFAYWGQGTLVTVSSGGGGSGGGGSGGGG[sequence of about 120 residues omitted] |  |  |  | 2.63 nM | 0.156 nM | 0.0041 nM | 0.0044 nM |
| CH3 15-E11 CC × I2L × (G4S)3 × scFc × (G4S)3 × MS 15-B12 CC × I2L (bispecific antibody) QVQLVQSGAEVKKPGASVKVSCKASGYTFTNYWMNWVRQAPGQCLEWMGNIAYGVKGTNYNQKFQGRVTMTVDTSSSTAYMELSRLRSDDTAVYYCATRYFYVMDYWGQGTLVTVSSGGGGSGGGGSGGGGSDIQMTQSPSSLSASVGDRVTITCRASQDISNYLNWYQQKPGKVPKLLIYYTSRLHSGVPSRFSGSGSGTDFTLTISSLQPEDVATYYCVQYAQFPLTFGCGTKVEIKSGGGGSEVQLVESGGGLVQPGGSLKLSCAASGFTFNKYAMNWVRQAPGKGMEWVARIRSKYNNYATYYADAVKDRFTISRDDSKNTLYLQMNNLKTEDTAVYYCVRAGNFGSSYISYFAYWGQGTLVTVSSGGGGSGGGGSGGGGSQTVVTQEPSLTVSPGGTVTITCGSSTGAVTSGNYPNWIQKKPGQAPRGLIGGTKFLAPGTPARFSGSLEGGKAALTLSGVQPEDEAEYYCVLYYSNRWVFGSGTKLTVLGGGGSGGGGSGGGGS[sequence of human IgG1 Fc with R292C N297G V302C (EU numbers) omitted]GGGGSGGGGSGGGGSGGGGSGGGGSGGGGS[sequence of human IgG1 Fc with R292C N297G V302C (EU numbers) omitted]GGGGSGGGGSGGGGSQVQLQESGPGLVKPSETLSLTCTVSGGSISSSSYFWGWIRQPPGKCLEWIGNIYYSGSSNYNPSLKSRVTISVDTSKNQFSLKLSSVTAADTAVYYCARLPRGDRDAFDIWGQGTMVTVSSGGGGSGGGGSGGGGSDIVMTQSPSSLSASVGDRVTITCRASQGISNYLAWYQQKPGKVPKLLIYAASTLQSGVPSRFSGSGSGTDFTLTISSLQPEDFATYYCQQSYSTPFTFGCGTKVEIKSGGGGSEVQLVESGGGLVQPGGSLKLSCAASGFTFNKYAMNWVRQAPGKGMEWVARIRSKYNNYATYYADAVKDRFTISRDDSKNTLYLQMNNLKTEDTAVYYCVRAGNFGSSYISYFAYWGQGTLVTVSSGGGGSGGGGSGGGGSQTVVTQEPSLTVSPGGTVTITCGSSTGAVTSGNYPNWIQKKPGQAPRGLIGGTKFLAPGTPARFSGSLEGGKAALTLSGVQPEDEAEYYCVLYYSNRWVFGSGTKLTVL |  |  |  | 7.66 nM | 0.315 nM | 0.0244 nM | 0.0378 nM |

— patent publication US20240209078A1 (Amgen, published 2024)
